Some of the results follow.
How the values were obtained:
Assay in all cases: glycan array binding signal (z-score within array); higher = stronger binding
Details in all cases: glycan notation: IUPAC condensed, linker removed; mutation: D22R
[1] = biological target: Gal(b1-4)GalNAc(b1-3)[Fuc(a1-2)]Gal(b1-4)GlcNAc
Outline: (§1)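 From the Consortium for Functional Glycomics database, 3228 arrays were curated, keeping only those whose protein sequence was available. Binding is given as a within-array Z-score averaged across arrays sharing a protein sequence and across linkers. Negative Z-scores can be read as non-binding.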

Gal(b1-4)Glc = biological target: Gal(b1-4)Glc
Outline: as §1

Gal(b1-4)Glc6S = biological target: Gal(b1-4)Glc6S
Outline: as §1

Gal(b1-4)GlcNAc = biological target: Gal(b1-4)GlcNAc
Outline: as §1

[2] = biological target: Gal(b1-4)GlcNAc(a1-6)Gal(b1-4)GlcNAc
Outline: as §1

Gal(b1-4)GlcNAc(b1-2)Man = biological target: Gal(b1-4)GlcNAc(b1-2)Man
Outline: as §1

[3] = biological target: Gal(b1-4)GlcNAc(b1-2)Man(a1-3)Man(b1-4)GlcNAc(b1-4)GlcNAc
Outline: as §1

[4] = biological target: Gal(b1-4)GlcNAc(b1-2)Man(a1-3)[Gal(b1-4)GlcNAc(b1-2)Man(a1-6)]Man(b1-4)GlcNAc(b1-4)GlcNAc
Outline: as §1

[5] = biological target: Gal(b1-4)GlcNAc(b1-2)Man(a1-3)[Gal(b1-4)GlcNAc(b1-2)Man(a1-6)]Man(b1-4)GlcNAc(b1-4)[Fuc(a1-6)]GlcNAc
Outline: as §1

[6] = biological target: Gal(b1-4)GlcNAc(b1-2)Man(a1-3)[Gal(b1-4)GlcNAc(b1-2)Man(a1-6)][Gal(b1-4)GlcNAc(b1-4)]Man(b1-4)GlcNAc(b1-4)[Fuc(a1-6)]GlcNAc
Outline: as §1

[7] = biological target: Gal(b1-4)GlcNAc(b1-2)Man(a1-3)[Gal(b1-4)GlcNAc(b1-2)Man(a1-6)][GlcNAc(b1-4)]Man(b1-4)GlcNAc(b1-4)[Fuc(a1-6)]GlcNAc
Outline: as §1

[8] = biological target: Gal(b1-4)GlcNAc(b1-2)Man(a1-3)[GlcNAc(b1-2)Man(a1-6)]Man(b1-4)GlcNAc(b1-4)GlcNAc
Outline: as §1

[9] = biological target: Gal(b1-4)GlcNAc(b1-2)Man(a1-3)[GlcNAc(b1-4)][Gal(b1-4)GlcNAc(b1-2)Man(a1-6)]Man(b1-4)GlcNAc(b1-4)GlcNAc
Outline: as §1

[10] = biological target: Gal(b1-4)GlcNAc(b1-2)Man(a1-3)[Man(a1-6)]Man(b1-4)GlcNAc(b1-4)GlcNAc
Outline: as §1

[11] = biological target: Gal(b1-4)GlcNAc(b1-2)Man(a1-6)Man(b1-4)GlcNAc(b1-4)GlcNAc
Outline: as §1

[12] = biological target: Gal(b1-4)GlcNAc(b1-2)Man(a1-6)[GlcNAc(b1-2)Man(a1-3)]Man(b1-4)GlcNAc(b1-4)GlcNAc
Outline: as §1

[13] = biological target: Gal(b1-4)GlcNAc(b1-2)Man(a1-6)[Man(a1-3)]Man(b1-4)GlcNAc(b1-4)GlcNAc
Outline: as §1

[14] = biological target: Gal(b1-4)GlcNAc(b1-2)[Gal(b1-4)GlcNAc(b1-4)]Man(a1-3)[Gal(b1-4)GlcNAc(b1-2)Man(a1-6)]Man(b1-4)GlcNAc(b1-4)GlcNAc
Outline: as §1

[15] = biological target: Gal(b1-4)GlcNAc(b1-2)[Gal(b1-4)GlcNAc(b1-4)]Man(a1-3)[Gal(b1-4)GlcNAc(b1-2)[Gal(b1-4)GlcNAc(b1-6)]Man(a1-6)]Man(b1-4)GlcNAc(b1-4)GlcNAc
Outline: as §1

[16] = biological target: Gal(b1-4)GlcNAc(b1-2)[Gal(b1-4)GlcNAc(b1-4)]Man(a1-3)[GlcNAc(b1-4)][Gal(b1-4)GlcNAc(b1-2)Man(a1-6)]Man(b1-4)GlcNAc(b1-4)GlcNAc
Outline: as §1

[17] = biological target: Gal(b1-4)GlcNAc(b1-2)[Gal(b1-4)GlcNAc(b1-4)]Man(a1-3)[GlcNAc(b1-4)][Gal(b1-4)GlcNAc(b1-2)[Gal(b1-4)GlcNAc(b1-6)]Man(a1-6)]Man(b1-4)GlcNAc(b1-4)GlcNAc
Outline: as §1

[18] = biological target: Gal(b1-4)GlcNAc(b1-2)[Gal(b1-4)GlcNAc(b1-6)]Man(a1-6)[Gal(b1-4)GlcNAc(b1-2)Man(a1-3)]Man(b1-4)GlcNAc(b1-4)GlcNAc
Outline: as §1

B1: MpL2 (Macrolepiota procera) (protein)
chain: MSTQVSSGQTYKITNVKAGTVIRLSGEDNKSIIGYPYHSGKNQQWTFNWTGKAWTLRSASSGSYLGIEGTPADGTRLVAVNDPFEWHIWRDEANENAFRIFVPFTNYNLDLSGYGDTTPGTPVQLWWTWEGLHQTWTIDRP
glycan array binding signal (z-score) [1]: -0.145 | glycan array binding signal (z-score) (Gal(b1-4)Glc): -0.098 | glycan array binding signal (z-score) (Gal(b1-4)Glc6S): 0.109 | glycan array binding signal (z-score) (Gal(b1-4)GlcNAc): -0.208 | glycan array binding signal (z-score) [2]: 4.13 | glycan array binding signal (z-score) (Gal(b1-4)GlcNAc(b1-2)Man): 0.161 | glycan array binding signal (z-score) [3]: -0.218 | glycan array binding signal (z-score) [4]: -0.47 | glycan array binding signal (z-score) [5]: 0.366 | glycan array binding signal (z-score) [6]: -1.56 | glycan array binding signal (z-score) [7]: -0.365 | glycan array binding signal (z-score) [8]: -0.978 | glycan array binding signal (z-score) [9]: -0.408 | glycan array binding signal (z-score) [10]: -0.207 | glycan array binding signal (z-score) [11]: -0.109 | glycan array binding signal (z-score) [12]: -0.42 | glycan array binding signal (z-score) [13]: 0.094 | glycan array binding signal (z-score) [14]: -0.492 | glycan array binding signal (z-score) [15]: -0.046 | glycan array binding signal (z-score) [16]: -0.047 | glycan array binding signal (z-score) [17]: -0.687 | glycan array binding signal (z-score) [18]: -0.672
